The list shows a part of the results.
System: PfHDP1 homeodomain (GST-tagged)
Experiment: gcPBM binding intensity (ln(normalized median fluorescence intensity)); higher = stronger DNA binding
Outline: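 Each value is the highest Masliner-normalised natural-log median intensity across replicate spots of either orientation of a probe. The probes were primer-extended double-stranded 36-bp intergenic genomic sequences on an Agilent 4 × 180k array, alongside negative controls, exposed for 1 h to GST-tagged P. falciparum DNA-binding domains expressed in E. coli. Bound protein was picked up with Alexa488 anti-GST antibody and scanned at 488 nm.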

| Sequence | gcPBM binding intensity (ln) |
| --- | --- |
| AAAAATATAACCGTTACACACAAAATAATATGAGAA [CACACA_site3773] | 6.7 |
| ATATATATATATATTTGTACTTACATTTTTATTTAT [XGTACX_site4551] | 9 |
| TATTTCATCTTTTAAGAAGGTACCCATATGTCATAT [GTGCAC_negctrl_site403] | 6.41 |
| ATAATAAGGTTAAGCACACATATTACATATATAACT [CACACA_site3356] | 6.42 |
| CGTAAACGATATAAATGTACGAATATCTATATATTA [XGTACX_site8116] | 6.31 |
| TATATATTGCCCTTCACACACACACCGATATATATA [CACACA_site5390] | 7.47 |
| TCGATTAAAACACAAAAATATAAATACATTGATAAA [TGCATGCA_negctrl_site523] | 5.93 |
| TTAAAAGTTATGGATACACACATATAAATATAGATT [CACACA_site7175] | 6.32 |
| TTAATAAATATGTTTACACACGAAAATACATTTTTT [CACACA_site8245] | 6.31 |
| ATTTTAATTTTTTAAGTATTATATGAATATTTATTA [TGCATGCA_negctrl_site142] | 5.81 |
| CACACGCACGAACACACACACACACGCGCACATATA [CACACA_site6304] | 8.54 |
| ACATATATATATATATATATATATATATATTCTTAA [CACACA_negctrl_site930] | 7.41 |
| TAATTTTCATAATTTTGTACTTAACGTTTTACCTTG [XGTACX_site8048] | 6.32 |
| GTCTAAAAATAAAAAGTGCATTTGTTTAATATTTTG | 9.16 |
| ATTAAAACAAATATGTGTACATAAAAATATATATAT [XGTACX_site8394] | 7.82 |
| TATTATTATTATTATTTTAAAAGAAATAAAAATATG [XGTACX_negctrl_site119] | 6.41 |
| TGATTGTATTAAAATGCACACATATCAAGAGGAATT [CACACA_site7985] | 9.97 |
| TTAATTTTTTTTTTTTGTACTCATATGTAATTCATC [XGTACX_site3071] | 6.41 |
| TTTTATTATTCTTCTCTCTTATATATATATATATAT [CACACA_negctrl_site646] | 9.04 |

| Sequence | gcPBM binding intensity (ln) |
| --- | --- |
| TTTCAAAGGAAATGGTGTACACAATTTTTCCTTTTT [XGTACX_site2340] | 6.05 |
| ACTGTGGTATAAAGTTGTACATGTTTTTATATATTT [XGTACX_site5257] | 6.41 |
| TACTTTTATATGAATACACACAGGAATATATATATG [CACACA_site3568] | 6.63 |
| ATAACATAGGCAATCACACATATCATTAAGGTGTCA [CACACA_site5233] | 6.3 |
| TTACTTTAACCTTCTCGTACTTATTTACTTTATTCT [XGTACX_site7801] | 7.08 |
| AAAAGTTTAAGTTTTCGAAAATTTACCAAAAAAAAA [CACACA_negctrl_site1644] | 6.3 |
| GTGCATAAATCATACACACACACATATATAAATATA [CACACA_site7188] | 7.31 |
| AAAGTTTTTATAAAAAAAAAAATAAATACCATATAT [XGTACX_negctrl_site113] | 6.5 |
| GTGTTTTTATGTGAATGTACATATTTACTATCACAC [XGTACX_site2388] | 6.84 |
| ATATATATATATATATCATTTATTTAAAAATTTTTT [TGCATGCA_negctrl_site228] | 9.41 |
| CTCATTTTTGTACAGGTGCACTTATCGTTACACTAT | 9.97 |
| AACACATAAAAAAGGTGTACCATAAAATATACATAC [XGTACX_site4478] | 6.61 |
| CTGTGTTTTGGTTGTACACACGCTACATTATATATT [CACACA_site5487] | 7.56 |
| TTTTAATTTTGTTGTTGTACAAATAACATGTGAGGG [XGTACX_site4401] | 7.54 |
| ATATACATTAAATGAACACACATAAATAAATTACAT [CACACA_site2852] | 6.42 |
| TATTTTATCATTTTTTTTATGTCTTTATTTCACTTG [CACACA_negctrl_site1398] | 6.51 |
| ATATACACATTAATAACACACAATATGATAACAAAT [CACACA_site7670] | 6.73 |
| TAGAATTAAGTTATTGCACACAGGAAAAGTTTCATA [CACACA_site1634] | 9.22 |
| AATCCTTACGAACACACACACACGAATAAATAAAAA [CACACA_site6363] | 6.97 |

| Sequence | gcPBM binding intensity (ln) |
| --- | --- |
| TCTTCGAAACTATCACTCTCACAATTCATTTATTTT [TGCATGCA_negctrl_site156] | 6.46 |
| ATAAATAAGAAAAATTGTACAATATTTTTTAGGATA [XGTACX_site3163] | 6.47 |
| TTTATGTAATATACATGTACAGAATATAAAATATAT [XGTACX_site6906] | 6.49 |
| TTAACTTCTTTAAAATGTACATATATTAAATAATAA [XGTACX_site3391] | 6.29 |
| AAAAAATATAGATGCACACACAAAAAAACAAATTAA [CACACA_site6718] | 8.71 |
| GTATTATTATTTTATGCATGTACATTGAATTATATT [TGCATGCA_site34] | 6.88 |
| ATATATATATATCAGAGTACATTCTTTAAAATATAT [XGTACX_site5915] | 8.7 |
| AGATTTTGAAATTATAAAAAAATTTCACTTCATTTA [CACACA_negctrl_site888] | 5.65 |
| TATTCTTACATCACCTCACACATTTAATATTCCTTA [CACACA_site4693] | 6.75 |
| ATATGAGTATAAAAATGTACGGAGCAACTAAATATA [XGTACX_site620] | 7.36 |
| TATAAATATGTATATGCATGTGGAATATATAATTAA [TGCATGCA_site226] | 6.76 |
| AAATAAAACAGACACACACACACATACACAAAAAAA [CACACA_site7753] | 6.85 |
| TGTCACCTATTTTTTTGTACGTATGTCCATTTTTTT [XGTACX_site4368] | 6.62 |
| ATTACAACCACATTGACATGCAAATGTAGAGGGGGA [TGCATGCA_site694] | 7.57 |
| TTTATTTTTAACAGTGCACACATAACTTAATTATAT [CACACA_site8681] | 9.52 |
| TATACAGATGGACACACACACATAAATAAATATATA [CACACA_site4863] | 6.8 |
| TACTATAACCCACATACACACAAAAAAAAAAAAAAA [CACACA_site4454] | 6.41 |
| TGGTTTATTTATTAAGTGCATAAATGCAATATATAT | 9.94 |

Source: the supplement of paper PMC11417369
